From PubChem BioAssay (NCATS)
The inconclusive results got no clear call from the source; some entries with a clear call stand among them for comparison. A potency beside an inconclusive call is a rough fit, not a confirmed value. Active and inactive are the calls of the source. The call rests on the fitted dose curve; in most records, active means well fitted cell-killing curve with a large enough effect; inconclusive means small, poorly fitted or top-dose-only effect, or effect the other way; inactive means flat fitted curve, though single readings scatter.

Tests used:
Assay in all cases: Primary qHTS to identify gynecologic anti-cancer compounds using libraries of approved drugs and bioactive compounds (AID 1345084); further: nearly all actives have a fitted effect of over 55% in size
C33A = details: Gynecologic cancer cell panel viability, ATPlite luminescence, 48 h; series mostly up to 57.5 µM
In short: (§1)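 Cells, 1,000 per well, plated 16 h, then exposed 48 h at 37 C to compounds. Viability by ATPlite luminescence after 15 min at room temperature.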

CAOV3 = details: Gynecologic cancer cell panel viability, ATPlite luminescence, 48 h; series mostly up to 57.5 µM
In short: as §1

CASKI = details: Gynecologic cancer cell panel viability, ATPlite luminescence, 48 h; series mostly up to 57.5 µM
In short: as §1

Es-2 = details: Gynecologic cancer cell panel viability, ATPlite luminescence, 48 h; series mostly up to 57.5 µM
In short: as §1

HeLa = details: Gynecologic cancer cell panel viability, ATPlite luminescence, 48 h; series mostly up to 57.5 µM
In short: as §1

Hek293T = details: Gynecologic cancer cell panel viability, ATPlite luminescence, 48 h, control line for the selectivity index; series mostly up to 57.5 µM
In short: as §1

OV90 = details: Gynecologic cancer cell panel viability, ATPlite luminescence, 48 h; series mostly up to 57.5 µM
In short: as §1

JEG-3 = details: Gynecologic cancer cell panel viability, ATPlite luminescence, 48 h; series mostly up to 57.5 µM
In short: as §1
Potency means the concentration at half of the fitted maximal effect; tags describe the fitted curve by direction and shape.

| Structure (SMILES) | Potency (C33A) | Potency (CAOV3) | Potency (CASKI) | Potency (Es-2) | Potency (HeLa) | Potency (Hek293T) | Potency (OV90) | Potency (JEG-3) |
| --- | --- | --- | --- | --- | --- | --- | --- | --- |
| CC[C@H](O)[C@@H](C)[C@H]1O[C@@H]1C[C@H](C)/C=C/C=C(\C)[C@H]1OC(=O)C[C@H](O)CC[C@@](C)(O)[C@@H](OC(C)=O)/C=C/[C@@H]1C | inconclusive: 100 µM | inconclusive: 35.5 µM | inconclusive: 0.1 µM | inconclusive: 1 µM | inconclusive: 1.58 µM | inconclusive: 398 µM | inconclusive: 0.708 µM | – |
| COC1C(O)C(C)OC(OC2C(CO)O[C@@H](O[C@@H]3CC4CCC5C(CC[C@]6(C)[C@@H](C7=CC(=O)OC7)CC[C@]56O)[C@@]4(C)[C@H](OC(C)=O)C3)C(O)C2O)C1O (stereo not given in full) | active: 3.55 µM | inconclusive: 12.6 µM [cytotoxic, single point] | inconclusive: 14.1 µM [cytotoxic, single point] | active: 6.31 µM | – | active: 3.55 µM | – | inconclusive: 12.6 µM [cytotoxic, single point] |
| C=C1C(=O)CC2OC2(C)CC2OC(=O)C(=C)C2C(O)C1OC(=O)/C(C)=C\C (stereo not given) | inconclusive: 28.2 µM [cytotoxic, single point] | inconclusive: 2.24 µM [cytotoxic, full curve, poor fit] | inconclusive: 4.47 µM [cytotoxic, full curve] | inconclusive: 28.2 µM [cytotoxic, single point] | – | inconclusive: 11.2 µM [cytotoxic, single point] | – | – |
| COC1CC(OC2CCC3(C=O)C(CCC4C3CCC3(C)C(C5=CC(=O)OC5)CCC43O)C2)OC(C)C1O (stereo not given) | active: 0.141 µM | active: 0.316 µM | active: 1 µM | active: 0.251 µM | – | active: 0.251 µM | active: 1 µM | active: 0.631 µM |
| CC(=O)O[C@H]1C[C@]2(O)[C@@H]3CC[C@@H]4C[C@@H](O)CC[C@]4(C)[C@H]3CC[C@]2(C)[C@H]1c1ccc(=O)oc1 | active: 0.0282 µM | active: 0.158 µM | active: 0.398 µM | active: 0.1 µM | – | active: 0.0891 µM | inconclusive: 1.58 µM [cytotoxic, full curve, poor fit] | active: 0.316 µM |
| CC(C)[C@]12O[C@H]1[C@@H]1O[C@]13[C@]1(O[C@H]1C[C@H]1C4=C(CC[C@@]13C)C(=O)OC4)[C@@H]2O | active: 0.708 µM | inconclusive: 1 µM | active: 0.199 µM | – | active: 0.158 µM | inconclusive: 0.1 µM | – | inconclusive: 0.0891 µM [cytotoxic, full curve, poor fit] |
| C=C(C)C(=O)O[C@H]1[C@@H]2[C@H](C)C(=O)O[C@@H]2C[C@@H](C)[C@@H]2C=CC(=O)[C@]21C | active: 12.6 µM | active: 10 µM | inconclusive: 4.47 µM [cytotoxic, full curve] | inconclusive: 5.01 µM [cytotoxic, full curve, poor fit] | – | active: 5.62 µM | active: 3.55 µM | inconclusive: 8.91 µM [cytotoxic, partial curve, poor fit] |
| CN1Cc2c(ccc3c2OCO3)[C@@H]2[C@H]1c1cc3c(cc1C[C@@H]2O)OCO3 | active: 7.08 µM | inconclusive: 5.01 µM [cytotoxic, single point] | inconclusive: 3.98 µM [cytotoxic, full curve] | active: 4.47 µM | – | inconclusive: 3.55 µM [cytotoxic, full curve, poor fit] | inconclusive: 10 µM [cytotoxic, partial curve] | inconclusive: 2.82 µM [cytotoxic, full curve] |
| COC1CC(O[C@H]2CC[C@@]3(C)C(CCC4C3CC[C@]3(C)[C@@H](C5=CC(=O)OC5)CC[C@]43O)C2)OC(C)C1O (stereo not given in full) | active: 0.1 µM | active: 0.178 µM | active: 0.141 µM | active: 0.158 µM | – | active: 0.141 µM | – | inconclusive: 0.158 µM [cytotoxic, full curve, poor fit] |
| COc1cc(O)c2c(c1)CCC[C@@H](O)[C@H](O)C(=O)/C=C\C[C@H](C)OC2=O | inconclusive: 28.2 µM [cytotoxic, single point] | inconclusive: 11.2 µM [cytotoxic, partial curve, poor fit] | inconclusive: 28.2 µM [cytotoxic, single point] | inconclusive: 5.01 µM [cytotoxic, partial curve, poor fit] | – | active: 11.2 µM | inconclusive: 11.2 µM [cytotoxic, single point] | inconclusive: 28.2 µM [cytotoxic, single point] |
